{"source": "ChEMBL document CHEMBL1156829", "note": "“And” between values parts separate entries of the source, which are not always exact repeats. Equal entries are not always repeated. Whole data set: some 5,400 compounds, median “IFI” near 2, cut for the highest 2% near 22. Some of the results follow.", "data": [{"experiment": "NOVARTIS: Inhibition Frequency Index (IFI) - the number of HTS assays where a compound showed > 50% inhibition/induction, expressed as a percentage of the number of assays in which the compound was tested.", "assay_type": "functional", "values": [{"smiles": "CC(Nc1ccccc1)C(=O)Nc1cc(C(F)(F)F)ccc1Cl", "note": "(stereo unspecified)", "IFI": "7.5%"}, {"smiles": "COc1ccc(CCNc2nc(NCCCN3CCCC3)ncc2C(=O)NCC(C)C)cc1OC", "IFI": "0.952%"}, {"smiles": "O=C(/C=C/c1ccccc1)c1c(-c2ccccc2)c2cc([N+](=O)[O-])ccc2[nH]c1=O", "IFI": "7.14%"}, {"smiles": "O=C(NC(c1ccccc1)c1ccc2cccnc2c1O)c1ccccc1", "note": "(stereo unspecified)", "IFI": "7.69%"}, {"smiles": "COC(=O)C1=C(C)NC2=C(C(=O)CC(c3ccc(OC)cc3)C2)C1c1ccc(F)cc1", "note": "(stereo unspecified)", "IFI": "2.33%"}, {"smiles": "CSc1cccc(NC(=O)C2C3C=CC4(O3)C2C(=O)N(Cc2ccc(F)cc2)C4C(=O)NC2CCCC(C)C2C)c1", "note": "(stereo unspecified)", "IFI": "0%"}, {"smiles": "CCCCN(CC)S(=O)(=O)c1cc(Br)cc2c1N(C(C)=O)CC2", "IFI": "0%"}, {"smiles": "CCOc1ccc(NC(=O)NC(Cc2c[nH]c3ccccc23)C(=O)N2CCN(C(=O)NC(C)C)C(C)C2)cc1", "note": "(stereo unspecified)", "IFI": "0.935%"}, {"smiles": "Cc1ccc(C)c(Nc2nc(NCc3ccco3)c3ccccc3n2)c1", "IFI": "6.45%"}, {"smiles": "O=C(O)CCNc1ccccc1[N+](=O)[O-]", "IFI": "0%"}, {"smiles": "CCN1CCCC1CNC(=O)CN1N=C(c2ccccc2)Cn2c(cc3ccccc32)C1=O", "note": "(stereo unspecified)", "IFI": "0%"}, {"smiles": "CCCCN(C)Cc1cc(-c2cccc(OC)n2)ccc1O", "IFI": "3.42%"}, {"smiles": "Cc1ccc(O)c(NC(=O)c2cnn3c(C(F)(F)F)cc(-c4ccccc4)nc23)c1", "IFI": "0%"}, {"smiles": "Cc1ccc(N2C3c4ccccc4N(S(=O)(=O)c4ccc(C)cc4)C2c2ccccc2N3S(=O)(=O)c2ccc(C)cc2)cc1", "IFI": "0%"}, {"smiles": "CCN1C=CC(=Cc2ccc3ccccc3[n+]2C)C=C1", "IFI": "3.08%"}, {"smiles": "O=C(Nc1ccc2c(c1)S(=O)(=O)c1cc(NC(=O)c3cccs3)ccc1-2)c1cccs1", "IFI": "3.79%"}, {"smiles": "CCOC(=O)C1=C(C)NC2=C(C(=O)CC(c3ccc(OC)c(OC)c3)C2)C1c1ccccc1C", "note": "(stereo unspecified)", "IFI": "5.88%"}, {"smiles": "O=C1c2ccccc2C(=O)C12C(c1ccc(Br)cc1)N(c1ccccc1)C1(C(=O)c3ccccc3C1=O)C2c1ccc(Br)cc1", "note": "(stereo unspecified)", "IFI": "0%"}, {"smiles": "C[n+]1c2ccccc2nc2ccc(NC3CCCCC3N)cc21", "note": "(stereo unspecified)", "IFI": "23.1%"}, {"smiles": "O=C(NCc1ccccc1)c1cnc(NCCCn2ccnc2)nc1NC1CCCC1", "IFI": "0.971%"}, {"smiles": "OC(CNCC1COc2ccccc2O1)c1ccccc1", "note": "(stereo unspecified)", "IFI": "1.5%"}, {"smiles": "N#Cc1c2c(c(N3CCN(CCO)CC3)n3c1nc1ccccc13)CCC2", "IFI": "2.33%"}, {"smiles": "CN(CCCNc1ccnc2cc(Cl)ccc12)C(=O)C(C)(C)C", "IFI": "1.87%"}, {"smiles": "CC(C)CN1C(=O)c2ccccc2C(C(=O)Nc2cc(F)ccc2F)C1c1cccs1", "note": "(stereo unspecified)", "IFI": "6.45%"}, {"smiles": "CC(=O)N(C1=C(N(C)C)C(=O)c2ccccc2C1=O)c1ccc(F)cc1", "IFI": "31.1%"}, {"smiles": "CCOc1cc(C(Nc2cc(C)ccn2)c2ccc3cccnc3c2O)ccc1OCc1ccccc1", "note": "(stereo unspecified)", "IFI": "7.14%"}, {"smiles": "CCN(CC)c1ccc2c(c1)OC(N)=C(C#N)C2c1ccsc1", "note": "(stereo unspecified)", "IFI": "9.09%"}, {"smiles": "Cc1ccc(NC(=S)NCCO)cc1C", "IFI": "3.03%"}, {"smiles": "CC(=O)Nc1ccc2c(c1)C(=O)N(C(C(=O)NCC(=O)O)C1CC1)[C@@H](CCC(=O)O)C(=O)N2", "note": "(stereo partly specified)", "IFI": "1.24%"}, {"smiles": "CCOC(=O)c1cnc2cc(OCC(C)C)c(OCC(C)C)cc2c1O", "IFI": "0.649%"}, {"smiles": "COCC(=O)N(C)CCCNc1ccnc2cc(Cl)ccc12", "IFI": "0.935%"}, {"smiles": "CCN1C(C)=C(C)S/C1=C\\c1ccc2cc(C)ccc2[n+]1C", "IFI": "11.4%"}, {"smiles": "COc1ccccc1N1CCN(c2ccc(NC(=O)c3cccc(F)c3)cc2C(=O)N2CCCC2)CC1", "IFI": "0.917%"}, {"smiles": "O=C(/C=C/c1ccc(-c2cccc([N+](=O)[O-])c2)o1)Nc1nccs1", "IFI": "0%"}, {"smiles": "C[n+]1c(/C=C\\c2ccc(F)cc2)ccc2ccccc21", "IFI": "3.49%"}, {"smiles": "COC(=O)c1ccc(N(C(=O)Cc2c[nH]c3ccccc23)C(C(=O)NC2CCCCC2)c2ccccc2F)cc1", "note": "(stereo unspecified)", "IFI": "5.46%"}, {"smiles": "COc1ccc2nc(C)cc(Nc3ccc(Cl)c(Cl)c3)c2c1", "IFI": "11.9%"}, {"smiles": "CC1(C)C2C[C@@H](COC(=O)NC(=O)c3ccccc3)[C@]3(C)[C@H](C21)C3(Cl)Cl", "note": "(stereo partly specified)", "IFI": "0%"}, {"smiles": "O=C(Nc1ccccc1)/C(=C\\c1ccncc1)NC(=O)c1ccccc1", "IFI": "0%"}, {"smiles": "CN(CCCNc1ccnc2cc(Cl)ccc12)C(=O)C(Cl)Cl", "IFI": "3.7%"}, {"smiles": "CCOC(=O)c1cn(CC)c2cc(N(C)CCc3ccc(OC)c(OC)c3)c(F)cc2c1=O", "IFI": "4.69%"}, {"smiles": "O=C(NN=Cc1cc2ccccc2cc1O)c1cccnc1", "IFI": "7.14%"}, {"smiles": "COc1cc2c(cc1/C=C(/C#N)c1cccc(C)c1)OCO2", "IFI": "0%"}, {"smiles": "Cc1nc(CC(=O)N2CCCC(CNC(=O)C3(c4ccc(Cl)cc4)CC3)C2)cs1", "note": "(stereo unspecified)", "IFI": "0%"}, {"smiles": "CCCCCCCCCCCC(OC(=O)C(CCCCN(O)C(C)=O)NC(=O)c1coc(-c2ccccc2O)n1)C(C)C(=O)NC1CCCCN(O)C1=O", "note": "(stereo unspecified)", "IFI": "6.9%"}, {"smiles": "CCc1cccc2c(C#N)cn(CC(=O)Nc3ccc(OC)cc3)c12", "IFI": "7.69%"}, {"smiles": "CN1CCN(c2nc(NN=Cc3cc(Br)c(O)cc3O)nc(Nc3ccc([N+](=O)[O-])cc3)n2)CC1", "IFI": "7.69%"}, {"smiles": "COc1ccccc1N1CCN(c2ccc(NC(=O)c3ccc(F)cc3)cc2C(=O)N2CCCC2)CC1", "IFI": "0.917%"}, {"smiles": "Brc1ccc(Nc2nc3ccccc3nc2Nc2ccc(Br)cc2)cc1", "IFI": "14.2%"}, {"smiles": "CCN(CC)CCCC(C)Nc1ccnc2ccc([N+](=O)[O-])cc12", "note": "(stereo unspecified)", "IFI": "0%"}, {"smiles": "CC(C)C(=O)NC(Nc1ccc([N+](=O)[O-])cc1)C(Cl)(Cl)Cl", "note": "(stereo unspecified)", "IFI": "0%"}, {"smiles": "CCC(=O)N1CCc2cc(Br)cc(S(=O)(=O)N3CCN(CC)CC3)c21", "IFI": "0%"}, {"smiles": "CN(C)c1ccc(/C=C/C(=O)NC(=O)c2ccccc2O)cc1", "IFI": "10.6%"}, {"smiles": "O=c1c(=Cc2ccc(Cl)cc2)sc2nc3ccccc3n12", "IFI": "3.09%"}, {"smiles": "CCN(CC)c1ccc(N=Cc2ccc(Sc3nc4ccccc4s3)o2)cc1", "IFI": "9.3%"}, {"smiles": "Oc1c2c(nc3cc(-c4ccc(Cl)cc4)nn13)CCCC2", "IFI": "7.14%"}, {"smiles": "COc1ccc(CNC(=O)c2ccc3c(c2)N=C(/C=C/c2ccccc2)N(CCN2CCOCC2)C3)cc1", "IFI": "8.54%"}, {"smiles": "Cc1cccc(NC(c2ccncc2)c2ccc3cccnc3c2O)n1", "note": "(stereo unspecified)", "IFI": "7.14%"}, {"smiles": "COc1ccc(Nc2nc(NCc3ccccc3)c3ccccc3n2)cc1", "IFI": "7.3%"}, {"smiles": "Cc1ccc(N2C(N)=NC(N)=NC2(C)C)cc1", "IFI": "5.3%"}, {"smiles": "COC(=O)C1C(=O)C2=C(CC1C)NC(=O)CC2c1ccc(Cl)cc1Cl", "note": "(stereo unspecified)", "IFI": "0%"}, {"smiles": "COc1ccc2c(C)nc(NC(=N)N)nc2c1", "IFI": "0%"}, {"smiles": "CCOc1ccccc1-n1c(SCC(=O)c2ccc(Cl)cc2)nc2[nH]ncc2c1=O", "IFI": "1.16%"}, {"smiles": "COCC(=O)NCc1ccc(OC2CCN(CC(c3ccccc3)c3ccccc3)CC2)cc1", "IFI": "1.41%"}, {"smiles": "O=[N+]([O-])c1cccc(C(O)CNCc2ccc3c(c2)OCO3)c1", "note": "(stereo unspecified)", "IFI": "0.813%"}, {"smiles": "CCCCCCN(C(=O)c1ccc(C(C)(C)C)cc1)C(CC)c1nc2ccccc2c(=O)n1-c1ccccc1OC", "note": "(stereo unspecified)", "IFI": "0.926%"}, {"smiles": "COc1ccc(S(=O)(=O)ON=C2C=C(C(C)C)C(=O)C=C2C)cc1", "IFI": "7.69%"}, {"smiles": "CCCCCCN(C(=O)c1cccc(OC)c1)C(CC)c1nc2ccccc2c(=O)n1-c1ccc(Cl)cc1C", "note": "(stereo unspecified)", "IFI": "0.935%"}, {"smiles": "O=C(Nc1ccc(Oc2cccnc2)cc1)C1CCN(Cc2cc3ccccc3o2)CC1", "IFI": "0%"}, {"smiles": "CC(C)(C)CC(=O)N1CCC[C@@H]2CN(C(=O)CCOc3ccccc3)CC[C@@H]21", "IFI": "1.92%"}, {"smiles": "CCCC(CCC)C(=O)Nc1ccc2c(c1)N(C(=O)CCCl)c1ccccc1CC2", "IFI": "1.89%"}, {"smiles": "COc1cc(NC(C)CCCN(Cc2ccc(F)cc2)C(=O)Nc2ccc(Br)cc2)c2ncccc2c1", "note": "(stereo unspecified)", "IFI": "3.77%"}, {"smiles": "COc1ccc(C(=O)Nc2ccc(-c3nc4ccc(NC(=O)c5ccc(OC)cc5)cc4[nH]3)cc2)cc1", "IFI": "12.8%"}, {"smiles": "COc1ccc(C=NN=C2NC(=O)C(CC(=O)Nc3ccccc3)S2)cc1OC", "note": "(stereo unspecified)", "IFI": "0%"}, {"smiles": "CCc1cc2c3c(c1)C1(C(=O)N3C(C)(C)CC2C)C(C#N)=C(N)Oc2cc(C)oc(=O)c21", "note": "(stereo unspecified)", "IFI": "0%"}, {"smiles": "Cc1occc1C(=O)NN=C/C(Br)=C/c1ccccc1", "IFI": "0%"}, {"smiles": "CC(C)CN1C(=O)c2ccccc2C(C(=O)Nc2ccc(F)c(Cl)c2)C1c1cccs1", "note": "(stereo unspecified)", "IFI": "3.12%"}, {"smiles": "Cc1ccn2c(NC(C)(C)CC(C)(C)C)c(-c3ccccc3OC(=O)CCc3ccccc3)nc2c1", "IFI": "3.74%"}, {"smiles": "O=C(OCCOc1ccc([N+](=O)[O-])cc1)c1ccc(Br)o1", "IFI": "0.769%"}, {"smiles": "Nc1ccc(Nc2ccc(N)cc2)cc1", "IFI": "3.94%"}, {"smiles": "C1=C(c2ccccc2)CCN(c2ncnc3c2nc2n3CCCCC2)C1", "IFI": "7.69%"}, {"smiles": "CCc1nn(-c2ccccc2)c2nc(-c3cc(Br)ccc3O)c3cc(OC)c(OC)cc3c12", "IFI": "0%"}, {"smiles": "CCOc1cc(/C=C(\\C#N)c2nc3ccccc3[nH]2)ccc1OCc1ccccc1C#N", "IFI": "0%"}, {"smiles": "CCCOC(=O)C1=C(C)NC2=C(C(=O)CC(c3ccc(OC)c(OC)c3)C2)C1c1cccc([N+](=O)[O-])c1", "note": "(stereo unspecified)", "IFI": "2.44%"}, {"smiles": "CC(C)CC1=Nc2cc(C(=O)NCc3ccccc3)ccc2CN1Cc1cccnc1", "IFI": "3.8%"}, {"smiles": "C[C@H](Nc1cncc(-c2ccc(Cl)cc2)n1)c1ccccc1", "IFI": "0%"}, {"smiles": "CCOc1ccc(C(=O)Nc2cc(OC)ccc2OC)cc1", "IFI": "0%"}, {"smiles": "CCC(C)(C)C1CCc2c(sc(NC(=O)c3ccc(F)cc3)c2C(N)=O)C1", "note": "(stereo unspecified)", "IFI": "0%"}, {"smiles": "COc1ccc(N2C(=O)c3cccnc3C2=O)cc1", "IFI": "1.15%"}, {"smiles": "Cc1ccc2nc3c(c(NCCCN(C)C)c2c1)CCC3", "IFI": "15.4%"}, {"smiles": "CC(C)(C)c1ccc(C(=O)N2CCCn3cccc3C2c2ccc(C(C)(C)C)cc2)cc1", "note": "(stereo unspecified)", "IFI": "4.59%"}, {"smiles": "COc1ccc(NC(=O)COc2ccccc2C(C)C)c(OC)c1", "IFI": "1.49%"}, {"smiles": "O=C(NCc1ccccc1)c1cnc(NCCCn2ccnc2)nc1NCC1CCCCC1", "IFI": "2.91%"}, {"smiles": "COc1ccc2cc3[n+](cc2c1OC)CCc1cc2c(cc1-3)OCO2", "IFI": "1.84%"}, {"smiles": "Cc1c2oc3c(C)ccc(C(=O)N[C@@H]4C(=O)N[C@H](C(C)C)C(=O)N5CCC[C@H]5C(=O)N(C)CC(=O)N(C)[C@@H](C(C)C)C(=O)O[C@@H]4C)c3nc-2c(C(=O)N[C@@H]2C(=O)N[C@H](C(C)C)C(=O)N3CCC[C@H]3C(=O)N(C)CC(=O)N(C)[C@@H](C(C)C)C(=O)O[C@@H]2C)c(N)c1=O", "IFI": "18% and 20.3%"}, {"smiles": "COc1ccc(CNC(=O)C2CNCC2c2ccc(C(F)(F)F)cc2)cc1", "note": "(stereo unspecified)", "IFI": "1.41%"}]}]}
